# Measurements reported in the supplement of paper PMC8728848.
# Some of the results follow.
# B1: Cohesin-hDCIR (Homo sapiens) (protein)
# chain: LDDLDAVRIKVDTVNAKPGDTVRIPVRFSGIPSKGIANCDFVYSYDPNVLEIIEIEPGDIIVDPNPDKSFDTAVYPDRKIIVFLFAEDSGTGAYAITKDGVFATIVAKVKEGAPNGLSVIKFVEVGGFANNDLVEQKTQFFDGGANVGDTTEPATPTTPVTTPTTTDDLDAASQKYSQLLEKKTTKELVHTTLECVKKNMPVEETAWSCCPKNWKSFSSNCYFISTESASWQDSEKDCARMEAHLLVINTQEEQDFIFQNLQEESAYFVGLSDPEGQRHWQWVDQTPYNESSTFWHPREPSDPNERCVVLNFRKSPKRWGWNDVNCLGPQRSVCEMMKIHLHHHHHH
# What was measured:
# Assay in all cases: glycan array binding signal (z-score within array); higher = stronger binding
# Conditions in all cases: glycan notation: IUPAC condensed, linker removed
# [1] = target: Neu5Ac(a2-6)Gal(b1-4)GlcNAc(b1-6)GalNAc
# In short: (§1)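 Glycan array data were curated from 3228 arrays in the Consortium for Functional Glycomics database and kept only where the protein sequence was available. Glycan names were converted to IUPAC-condensed notation, and columns mapping to the same glycan were averaged. The binding signal is a within-array Z-score, averaged across arrays of the same protein sequence at different concentrations or buffers and across linkers. Negative Z-scores can be read as non-binding.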
# [2] = target: Neu5Ac(a2-6)Gal(b1-4)GlcNAc(b1-6)[Gal(b1-3)GlcNAc(b1-3)]Gal(b1-4)Glc
# In short: as §1
# [3] = target: Neu5Ac(a2-6)Gal(b1-4)GlcNAc(b1-6)[Gal(b1-3)]GalNAc
# In short: as §1
# [4] = target: Neu5Ac(a2-6)Gal(b1-4)GlcNAc6S
# In short: as §1
# [5] = target: Neu5Ac(a2-6)GalNAc
# In short: as §1
# [6] = target: Neu5Ac(a2-6)GalNAc(b1-4)GlcNAc
# In short: as §1
# [7] = target: Neu5Ac(a2-6)GalNAc(b1-4)GlcNAc6S
# In short: as §1
# [8] = target: Neu5Ac(a2-6)GlcNAc(b1-4)GlcNAc
# In short: as §1
# [9] = target: Neu5Ac(a2-6)GlcNAc(b1-4)GlcNAc(b1-4)GlcNAc
# In short: as §1
# [10] = target: Neu5Ac(a2-8)Neu5Ac
# In short: as §1
# [11] = target: Neu5Ac(a2-8)Neu5Ac(a2-3)Gal(b1-3)GalNAc(b1-4)[Neu5Ac(a2-3)]Gal(b1-4)Glc
# In short: as §1
# [12] = target: Neu5Ac(a2-8)Neu5Ac(a2-3)Gal(b1-3)GalNAc(b1-4)[Neu5Ac(a2-8)Neu5Ac(a2-3)]Gal(b1-4)Glc
# In short: as §1
# [13] = target: Neu5Ac(a2-8)Neu5Ac(a2-3)Gal(b1-4)Glc
# In short: as §1
# [14] = target: Neu5Ac(a2-8)Neu5Ac(a2-3)Gal(b1-4)GlcNAc
# In short: as §1
# [15] = target: Neu5Ac(a2-8)Neu5Ac(a2-3)[Gal(b1-3)GalNAc(b1-4)]Gal(b1-4)Glc
# In short: as §1
# [16] = target: Neu5Ac(a2-8)Neu5Ac(a2-3)[GalNAc(b1-4)]Gal(b1-4)Glc
# In short: as §1
# [17] = target: Neu5Ac(a2-8)Neu5Ac(a2-8)Neu5Ac
# In short: as §1
# [18] = target: Neu5Ac(a2-8)Neu5Ac(a2-8)Neu5Ac(a2-3)Gal(b1-4)Glc
# In short: as §1
# [19] = target: Neu5Ac(a2-8)Neu5Ac(a2-8)Neu5Ac(a2-3)[Gal(b1-3)GalNAc(b1-4)]Gal(b1-4)Glc
# In short: as §1
# [20] = target: Neu5Ac(a2-8)Neu5Ac(a2-8)Neu5Ac(a2-3)[GalNAc(b1-4)]Gal(b1-4)Glc
# In short: as §1
# [21] = target: Neu5Ac(a2-8)Neu5Ac(a2-8)Neu5Ac(a2-8)Neu5Ac(a2-3)[GalNAc(b1-4)]Gal(b1-4)Glc
# In short: as §1
# [22] = target: Neu5Ac(a2-8)Neu5Gc(a2-3)Gal(b1-4)GlcNAc
# In short: as §1
# [23] = target: Neu5Ac(b2-6)Gal(b1-4)GlcNAc
# In short: as §1
# [24] = target: Neu5Ac(b2-6)GalNAc
# In short: as §1
# [25] = target: Neu5Ac9Ac(a2-3)Gal(b1-3)GlcNAc
# In short: as §1
# [26] = target: Neu5Ac9Ac(a2-3)Gal(b1-4)GlcNAc
# In short: as §1
# [27] = target: Neu5Ac9Ac(a2-6)Gal(b1-4)GlcNAc
# In short: as §1
# [28] = target: Neu5Gc(a2-3)Gal(b1-3)GlcNAc
# In short: as §1
# [29] = target: Neu5Gc(a2-3)Gal(b1-3)[Fuc(a1-4)]GlcNAc
# In short: as §1
# [30] = target: Neu5Gc(a2-3)Gal(b1-4)Glc
# In short: as §1
# [31] = target: Neu5Gc(a2-3)Gal(b1-4)GlcNAc
# In short: as §1
# [32] = target: Neu5Gc(a2-3)Gal(b1-4)GlcNAc(b1-3)Gal(b1-4)GlcNAc(b1-2)Man(a1-3)[Neu5Gc(a2-3)Gal(b1-4)GlcNAc(b1-3)Gal(b1-4)GlcNAc(b1-2)Man(a1-6)]Man(b1-4)GlcNAc(b1-4)GlcNAc
# In short: as §1
# [33] = target: Neu5Gc(a2-3)Gal(b1-4)[Fuc(a1-3)]GlcNAc
# In short: as §1
# [34] = target: Neu5Gc(a2-6)Gal(b1-4)GlcNAc
# In short: as §1
# [35] = target: Neu5Gc(a2-6)GalNAc
# In short: as §1
# [36] = target: Neu5Gc(a2-8)Neu5Ac(a2-3)Gal(b1-4)GlcNAc
# In short: as §1
# [37] = target: Neu5Gc(a2-8)Neu5Gc(a2-3)Gal(b1-4)GlcNAc
# In short: as §1
# [38] = target: Neu5Gc(a2-8)Neu5Gc(a2-3)Gal(b1-4)GlcNAc(b1-3)Gal(b1-4)GlcNAc
# In short: as §1
binder,measurement,setting,value
B1,glycan array binding signal (z-score),[1],-0.358
same,glycan array binding signal (z-score),[2],-0.24
same,glycan array binding signal (z-score),[3],0.064
same,glycan array binding signal (z-score),[4],-0.202
same,glycan array binding signal (z-score),[5],0.964
same,glycan array binding signal (z-score),[6],-0.194
same,glycan array binding signal (z-score),[7],-0.456
same,glycan array binding signal (z-score),[8],-0.676
same,glycan array binding signal (z-score),[9],-0.585
same,glycan array binding signal (z-score),[10],-0.297
same,glycan array binding signal (z-score),[11],-0.571
same,glycan array binding signal (z-score),[12],0.241
same,glycan array binding signal (z-score),[13],-0.547
same,glycan array binding signal (z-score),[14],-0.016
same,glycan array binding signal (z-score),[15],-0.636
same,glycan array binding signal (z-score),[16],0.046
same,glycan array binding signal (z-score),[17],-0.514
same,glycan array binding signal (z-score),[18],-0.675
same,glycan array binding signal (z-score),[19],0.099
same,glycan array binding signal (z-score),[20],-0.163
same,glycan array binding signal (z-score),[21],0.019
same,glycan array binding signal (z-score),[22],-0.364
same,glycan array binding signal (z-score),[23],-0.634
same,glycan array binding signal (z-score),[24],-0.673
same,glycan array binding signal (z-score),[25],1.61
same,glycan array binding signal (z-score),[26],-0.625
same,glycan array binding signal (z-score),[27],-0.23
same,glycan array binding signal (z-score),[28],-0.174
same,glycan array binding signal (z-score),[29],0.79
same,glycan array binding signal (z-score),[30],-0.517
same,glycan array binding signal (z-score),[31],0.071
same,glycan array binding signal (z-score),[32],0.537
same,glycan array binding signal (z-score),[33],-0.308
same,glycan array binding signal (z-score),[34],0.072
same,glycan array binding signal (z-score),[35],1.31
same,glycan array binding signal (z-score),[36],-0.614
same,glycan array binding signal (z-score),[37],-0.662
same,glycan array binding signal (z-score),[38],-0.023
